Measured values: the RNAGym collection of RNA variant scans (doi:10.7554/elife.90254)
The source gives no read counts; variants with many changes may rest on few reads.

B1: OR4K15 (parent)
chain: GUUAACGGUCAUAGGCCAUGGAAACUAGGAGCACCAUUUCGCUGCCAGUGAAGAAAUGAACAAAGAAAAUCUGGGCCAGGCAGGCAUCAAAAGAAAUAGUCUUGCGCUCAACCAGAAAGUCUGUAAUCAUUUUAAGGGUA

Variants of: B1
Test: self-cleavage, relative activity (ratio to wild type); higher = more cleavage; in vitro, sequencing; the parent is a self-cleaving ribozyme

Variant | self-cleavage
GUUAACGGUCAUAGGCCAUGGAAACUAGGUGCACCAUUUCGCUGCCAGUGAAGAAAUGAACGAAGAAAAUCUGGGCCAGGCAGGCAUCAAAAGAAAUAGUCCUGCGCUCAACCAGAAAGUCUGUAAUCAUUUUAAGGGUA | 1.44
GUUAACGGUCAUAGGCCAUGGAAACUAGGUGCACCAUUUCGCUGCCAGUGAAGAAAUGAACAGAGAAAAUCUGGGCCAGGCAGGCAUCAAAAGAAAUAGUCUUGCGCUCAACCAGAAAGUCCGUAAUCAUUUUAAGGGUA | 0.9
GUUAACGGUCAUAGGCCAUGGAAACUAGGUGCACCAUUUCGCUGCCAGUGAAGAAAUGAACAGAGAAAAUCUGGGCCAGGCAGGCAUCAAAAGAAAUAGUCUUGCGCUCAACCAGAAAGUCUGUAAUCAUUCUAAGGGUA | 1.76
GUUAACGGUCAUAGGCCAUGGAAACUAGGUGCACCAUUUCGCUGCCAGUGAAGAAAUGAACAAGGAAAAUCUGGGCCAGGCAGGCAUCAAAAGAAAUAGUCUUGCGCUCAACCAGAAGGUCUGUAAUCAUUUUAAGGGUA | 1.55
GUUAACGGUCAUAGGCCAUGGAAACUAGGUGCACCAUUUCGCUGCCAGUGAAGAAAUGAACAAAGAAGAUCUGGGCCGGGCAGGCAUCUAAAGAAAUAGUCUUGCGCCCAACCAGAAAGUCUGUAAUCAUUUUAAGGGUA | 0.01
GUUAACGGUCAUAGGCCAUGGAAACUAGGUGCACCAUUUCGCUGCCAGUGAAGAAAUGAACAAAGAAGAUCUGGGCCAGGCAGGCAUCAAAAGAAAUAGUCCCGCGCUCAACCAGAAAGCCUGUAAUCAUUUUAAGGGUA | 0.07
GUUAACGGUCAUAGGCCAUGGAAACUAGGUGCACCAUUUCGCUGCCAGUGAAGAAAUGAACAAAGAAGAUCUGGGCCAGGCAGGCAUCAAAAGAAAUAGUCUUGCGCUCAACCAGAAAGUCCGUAAUCAUUUUAAGGGUA | 1.3
GUUAACGGUCAUAGGCCAUGGAAACUAGGUGCACCAUUUCGCUGCCAGUGAAGAAAUGAACAAAGAAAAUCUGGGCCGGGCAGGCAUCAAAAGAAAUAGUCUUGCGCCCAACCAGAAAGUCUGUAAUCAUUUUAAGGGUA | 0.02
GUUAACGGUCAUAGGCCAUGGAAACUAGGUGCACCAUUUCGCUGCCAGUGAAGAAAUGAACAAAGAAAAUCUGGGCCAGGCGGGCAUCAAAGGAAAUAGUCUUGCGCUCAACCAGAAAGUCUGUAAUCAUUUUAAGGGUA | 0.66
GUUAACGGUCAUAGGCCAUGGAAACUAGGUGCACCAUUUCGCUGCCAGUGAAGAAAUGAACAAAGAAAAUCUGGGCCAGGCAGGCAUCAUAAGGAAUAGUCUUGCGCUCAACCAGAAAGUCUGUAAUCAUUCUAAGGGUA | 1.64
GUUAACGGUCAUAGGCCAUGGAAACUAGGUGCACCAUUUCGCUGCCAGUGAAGAAAUGAACAAAGAAAAUCUGGGCCAGGCAGGCAUCAAGAGAAAUAGUCUUGCGCUCAACCAGAAAGUCUGUAAUCAUUUUGAGGGUA | 1.86
GUUAACGGUCAUAGGCCAUGGAAACUAGGUGCACCAUUUCGCUGCCAGUGAAGAAAUGAACAAAGAAAAUCUGGGCCAGGCAGGCAUCAAAAGGAAUAGUCUUGCGCUCACCCAGAAGGUCUGUAAUCAUUUUAAGGGUA | 0
GUUAACGGUCAUAGGCCAUGGAAACUAGGUGCACCAUUUCGCUGCCAGUGAAGAAAUGAACAAAGAAAAUCUGGGCCAGGCAGGCAUCAAAAGGAAUAGUCUUGCGCUCAACCAGAAAGUCUGUAAUCAUUCUAAGGGUA | 1.81
GUUAACGGUCAUAGGCCAUGGAAACUAGGUGCACCAUUUCGCUGCCAGUGAAGAAAUGAACAAAGAAAAUCUGGGCCAGGCAGGCAUCAAAAGAGAUAGUCUUGCGCUCAACCAGAAAGUCUGUAAUCAUUUUAAGGGUG | 1.54
GUUAACGGUCAUAGGCCAUGGAAACUAGGUGCACCAUUUCGCUGCCAGUGAAGAAAUGAACAAAGAAAAUCUGGGCCAGGCAGGCAUCAAAAGAAAUAGUCUUGCGCUCGACCAGAAAGUCUGUAACCAUUUUAAGGGUA | 0.11
GUUAACGGUCAUAGGCCAUGGAAACUAGGUGCACCAUUUUGCUGCUAGUGAAGAAAUGAACAAAGAAAAUCUGGGCCAGGCAGGCAUCAGAAGAAAUAGUCUUGCGCUCAACCAGAAAGUUUGUAAUCAUUUUAAGGGUA | 0.55
GUUAACGGUCAUAGGCCAUGGAAACUAGGUGCACCAUUUCGCUGCUAGUGAAGUAAUGAACAAAGAAAAUCUGGGCCAGGCAGGCAUCAAAAGAAAUAGUCUUGCGCACAACCAGAAAGUCUGUAAUCAUUUUAAGGGUA | 0.02
GUUAACGGUCAUAGGCCAUGGAAACUAGGUGCACCAUUUCGCUGCCAGUGAAGAAAUGAACAAAGAAAAUCUGGGCCAGGCAGGAAUCGAAAGAAAUAGUCUUGCGUUCAACCAGAAAGUCUGUAAUCAUUUUAAGGGUA | 0.03
GUUAACGGUCAUAGGCCAUGGAAACUAGGUGCACCACUUCGCUGCCAGUGAAGAACUGAACAAAGAAAAUCUGGGCCAGGCAGGCAUCAAGAGAAAUAGUCUUGCGCUCAACCAGAAAGUCUGUAAUCAUUUUAAGGGUA | 1.18
GUUAACGGUCAUAGGCCAUGGAAACUAGGUGCACCACCUCGCUGCCAGUGAAGAAAUGAACAAAGAAAAUCUGGGCCAGGCAGGCAUCAAAAGAAAUAGUCUUGCGCUCAACCAGAAAGUCUGUAAUCAUUUUAAGGGUA | 0.84
GUUAACGGUCAUAGGCCAUGGAAACUAGGUGCACCAUUACGCUGCCAGUGAAGAAAUGAACAAGGAAAGUCUGGGCCAGGCAGGCAUCAGAAGAAAUAGUCUUGCGCUCAACCAGAAAGUCUGUAAUCAUUUUAAGGGUA | 1.37

Variant | self-cleavage
GUUAACGGUCAUAGGCCAUGGAAACUAGGUGCACCAUUACGCUGCCAGUGAAGAAAUGAACAAAGAAAAUCUGGGCCAGGCAGGCGUCAAAAGAAAUAGUCUUGCGCUCAACCAGAAAGUCUGUAAUCAUUUUAAGGGUA | 0.91
GUUAACGGUCAUAGGCCAUGGAAACUAGGUGCACCAUUCCGCUGCCAGUGAAGAAAUGAACAAAGAAAACCUGGGCCAGGCAGGCAUCAAAAGAAAUAGUCUUGCGCUCAACCAGAAAGUCUGUAAUCAUUUUAAGGGUA | 0.73
GUUAACGGUCAUAGGCCAUGGAAACUAGGUGCACCAUUUCGCCGCCAGUGAAGAAAUGAACAAAGAUGAUCUGGGCCAGGCAGGCAUCAAAAGAAAUAGUCUUGCGCUCAACCAGAAAGUCUGUAAUCAUUUUAAGGGUA | 1.58
GUUAACGGUCAUAGGCCAUGGAAACUAGGUGCACCAUUUCGCCGCCAGUGAAGAAAUGAACAAAGAAAAUCUGGGCCAGGCAGGCAUCAGAAGAAAUAGUCUUGCGCUCAACCAGAAAGUCUGUAAUCAUUAUAAGGGUA | 0.91
GUUAACGGUCAUAGGCCAUGGAAACUAGGUGCACCAUUUCGCUGCCAGAGAAGAAAUGAACAAAGAAAAUCUGGGCCAGGCAGGCAUCAAAAGAAAUAGUCUUGCGCUCAACCAGAAAGUCCGUAAUCAUUUUAAGGGUA | 1
GUUAACGGUCAUAGGCCAUGGAAACUAGGUGCACCAUUUCGCUGCCAGCGAAGGAAUGAACAAAGAAAAUCUGGGCCAGGCAGGCAUCAAAAGAAAUAGUCUUGCGCUCAACCAGAAAGUCUGUAAUCAUUUUAAGGGUA | 1.42
GUUAACGGUCAUAGGCCAUGGAAACUAGGUGCACCAUUUCGCUGCCAGGGAAGAAAUGAACAAAGAAAAUCUGGGCCAGGCAGGCAUCAUAAGAAAUAGUCUUGCGCUCAACCAGAGAGUCUGUAAUCAUACUAAGGGUA | 1.78
GUUAACGGUCAUAGGCCAUGGAAACUAGGUGCACCAUUUCGCUGCCAGUGAAGAAAUGAACAAAGAAAACCUGGGCCAGGCAGGCAACAAAAGAAAUAGUCUUGCGCUCAACCAGAAAGUCUGUAAUCAUUUUAAGGGUA | 0.99
GUUAACGGUCAUAGGCCAUGGAAACUAGGUGCACCAUUUCGCUGCCAGUGAAGAAAUGAACAAAGAAAAUCUGGGCCAGGCAGGCACCAAAAGAAAUAGUCUUGCGCUCAACCAGAAAGUCUGUAAUCAUUUUAGGGGUA | 1.58
GUUAACGGUCAUAGGCCAUGGAAACUAGGUGCACCAUUUCGCUGCCAGUGAAGAAAUGAACAAAGAAAAUCUGGGCCAGGCAGGCAUCAAAAGAAAUAGUCUUGCGCCCAACCAGAAGGUCAGUAAUCAUCUUAAGGGUA | 0
GUUAACGGUCAUAGGCCAUGGAAACUAGGAACACCAUUUCGCUGCCAGUGAAGAAAUGAACAAAGGAAGUCUGGGCCAGGCAGGCAUCAAAAGAAAUAGUCUUGCGCUCAACCAGAAAGUCUGUAAUCAUUUUAAGGGUA | 2.04
GUUAACGGUCAUAGGCCAUGGAAACUAGGAACACCAUUUCGCUGCCAGUGAAGAAAUGAACAAAGGAAAUCUGGGCCAGGCAGGCAUCAAAAGAAAUAGUCUUGCGCUCAACCAGAGAGUCUGUAAUCAUUUAAAGGGUA | 2.37
GUUAACGGUCAUAGGCCAUGGAAACUAGGAACACCAUUUCGCUGCCAGUGAAGAAAUGAACAAAGAGAAUCUGGGCCAGGCAGGCAACAGAAGAAAUAGUCUUGCGCUCAACCAGAAAGUCUGUAAUCAUUUUAAGGGUA | 2.67
GUUAACGGUCAUAGGCCAUGGAAACUAGGAACACCAUUUCGCUGCCAGUGAAGAAAUGAACAAAGAAAAUCUGGGCCAGGCAGGCAUCAAAGGAAAUAGUCUUGCGCUCAACCAGAAAGUCUGUAAUCGUUUUAAGGGUA | 0.86
GUUAACGGUCAUAGGCCAUGGAAACUAGGAACACCAUUUCGCAGCCAGUGAAGAAAUGAACAAAGAAAAUCUGGGCCAGGCAGGCAUCAAAAGGAAUAGUCUUGCGCUCAACCAGAAAGUCUGUAAUCAUUUUAAGGGUA | 1.78
GUUAACGGUCAUAGGCCAUGGAAACUAGGAACACCAUUUCGCUGCCAGUGAAGAAAUGAACAAAGAAAAUCAGGGCCAGGCAGGCAUCAAAAGAAAUAGUCCUGCGCUCAACCAGAAAGUCUGUAAUCAUUUUAAGGGUA | 0.6
GUUAACGGUCAUAGGCCAUGGAAACUAGGACCGCCAUUUCGCUGCCAGUGAAGAAAUGGACAAAGAAAAUCUGGGCCAGGCAGGCAUCAAAGGAAACAGUCUUGCGCUCAACCAGAAAGUCUGUAAUCAUUUUAAGGGUA | 0.73
GUUAACGGUCAUAGGCCAUGGAAACUAGGACCUCCAUUUCGCUGCCAGUGAAGGAAUGAACAAAGAAAAUCUGGGUCAGGCAGGCACCAAAAGAAAUAGUCUUGCGCUCAACCAGAAAGUCUGUAAUCAUUUUAAGGGUA | 0.25
GUUAACGGUCAUAGGCCAUGGAAACUAGGACCACCAUUUCGCUGCCAGUGAAGAAAUGAACAAAGAAGAUCUGGGCCAGGCAGGCAUCGAAAGAAAUAGUCUUGCGCUCAAACAGAAAGUCUGUAAUCAUUUUAAGGGUA | 0
GUUAACGGUCAUAGGCCAUGGAAACUAGGACCACCAUUUCGCUGCCAGUGAAGAAAUGAACAAAGAAAAUCUGGGCCAGGCAGGCAUCUAAAGAAAUAGUCCUGCGCUCAACCAGAAAGUCUGUAAUCAUUUUAAGGGUA | 2.72
